Results reported in paper PMC12136788.
The list shows a part of the results.

T1: UNK ZnF1-6 (called full-length) (human, UniProt Q9C0B0 30-357)
T1 sequence: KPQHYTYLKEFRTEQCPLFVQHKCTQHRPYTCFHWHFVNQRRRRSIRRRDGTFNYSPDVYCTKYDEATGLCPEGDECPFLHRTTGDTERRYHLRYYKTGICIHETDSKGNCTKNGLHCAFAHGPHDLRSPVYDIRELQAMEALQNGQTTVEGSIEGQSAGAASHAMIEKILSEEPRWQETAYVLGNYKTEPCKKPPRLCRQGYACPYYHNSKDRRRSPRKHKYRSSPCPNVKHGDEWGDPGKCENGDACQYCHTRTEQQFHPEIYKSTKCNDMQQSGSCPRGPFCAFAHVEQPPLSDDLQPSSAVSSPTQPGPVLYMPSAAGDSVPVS

B1: chr5:72208839:72208948:+|3pUTR|ENSG00000131711|msi1_unk|FALSE|overlapping (ssRNA)
RNA: GGGAGUUCUACAGUCCGACGAUCCUUGCCUCUCUUUAGUCACCUGUCACAGGAGGUUCCUGCUCAGUAAUGAUAUUGUGAGUUAGGAUAAUAACUUUUUUUUUUUGUGCUUCAGAUUUAGAAGAAAAGAUCCUGUUUCCAUUUCAACAGAGGAUUGAGCAUCA
B2: chr14:92797766:92797867:+|CDS|ENSG00000066455|msi1|total|mutant (ssRNA)
RNA: GGGAGUUCUACAGUCCGACGAUCCAUUUUGUGCGAAGAAAAAAGUCAGAACCUGAUGAUGAGCUGCUGUUUGAUUUUCUUAACCGUUCACAGAAGGAGCCUACCGGGAGGGUGGAAAUCAGAAAGGAAAAAGGCAAGACACCUCAACAGAGGAUUGAGCAUCA
B3: chr18:68676332:68676434:-|3pUTR|ENSG00000166479|msi1_unk|total|mutant (ssRNA)
RNA: GGGAGUUCUACAGUCCGACGAUCAUCAAGAUUAUGAGGUUAAAAAUAAUGUGGUUUUAUACCGCACCGUGGUUUUAUUUUGUCCGUUAUUUUUAAAGGAGAAGAAAUGUUACUUUUUAACUUUAUACUCAGUUGCAUUAUCAUCAACAGAGGAUUGAGCAUCA
B4: ENSG00000107863:be:win_2001|CDS|ENSG00000107863|bound_else_gene|NA|bound_elsewhere_windowed (ssRNA)
RNA: GGGAGUUCUACAGUCCGACGAUCAAGGACUGACAGUGCCCCCGAUCAGCAAGUGGAGACUGGGAAAUCCCCCUCUUUAUCUGGAGCCUCUGCCAAGCCUGCCCCUCAGUCGAGUGAAAACGCUGGUACUUCAGAUUUAGAACUCAACAGAGGAUUGAGCAUCA
B5: chr1:112912765:112912828:-|3pUTR|ENSG00000155380|msi1_unk|total|mutant (ssRNA)
RNA: GGGAGUUCUACAGUCCGACGAUCUUAAGGUUUGCAAAUUAAAAAGGGCCAGAAAAAUUUGGCACCAGGCAAACGAAUAAAGACCGGAUUGGGAAAGAAGUUGCUAAGUGUGCUCCGUUUUAAUAAGUAAUUCCUUCUCUUUUUCAACAGAGGAUUGAGCAUCA
B6: chr1:228098371:228098472:+|3pUTR|ENSG00000143761|msi1_unk|total|mutant (ssRNA)
RNA: GGGAGUUCUACAGUCCGACGAUCUGUGUUGAAAUCCAUUUUGGUGGUUGGUUUUUAACCCAAACUCAGUGCAUUUUUUAAAACCGUUAAGAAUCCAAGUCGAGAACACUUGAACACACAGAAGGGAGACCCCGCCCCGCACCGCAACAGAGGAUUGAGCAUCA
B7: chr4:113382420:113382521:+|3pUTR|ENSG00000145362|msi1|total|mutant (ssRNA)
RNA: GGGAGUUCUACAGUCCGACGAUCUCUUCAGGUCUUCCGAUCUUGGACAAGUUGGCAGGGUAUUUUAAAAGCUAUAACUACUGCCGUUUUCCAGUUUUCAUUGCUGCUUCCGCAAACCACGCUGUCUUACAGUGGUACUUUCUUCAACAGAGGAUUGAGCAUCA
B8: chr16:46660370:46660459:-|3pUTR|ENSG00000069329|msi1_unk|total|mutant (ssRNA)
RNA: GGGAGUUCUACAGUCCGACGAUCAAAAGGAAACCGCUCACCAUACUCCUUUCCAUGUACAUCCAGUGAGGGUUUUAUUACGCCCGGUUUCCCUUCCACCGAUUGUGCCUUUCAGAAAUGCUGAGGCCGGUUUCCCAUUUCUUACAACAGAGGAUUGAGCAUCA
B9: chr8:18872320:18872424:-|CDS|ENSG00000156011|unk|total|mutant (ssRNA)
RNA: GGGAGUUCUACAGUCCGACGAUCGCCAGAAUCAUUUCCGGAACAUUACAGGCUACAAAGGUACUGGACCAAGAUGCUGUUUCCCGUUUUUCAGUUCAGCAGGUGGAAAAAGAGCUGGACACUGCCAGUCGUAAAACACAGAGACAACAGAGGAUUGAGCAUCA
B10: ENSG00000163636:stop:overlap|stop_codon|ENSG00000163636|stop_codon|NA|stop_codon (ssRNA)
RNA: GGGAGUUCUACAGUCCGACGAUCUCUUCCAAUCAUUAGGGAACUGUCCAGGUUUAUUGCUGCCGGGAGACUACACUGCAAAAUAGAUAAAGUGAAUGAAAUAGUAGAAACCAACAGACCUGAUAGCAAGAACUGGCAGUACCACAACAGAGGAUUGAGCAUCA
B11: chr5:141515046:141515147:-|3pUTR|ENSG00000131504|msi1_unk|FALSE|overlapping (ssRNA)
RNA: GGGAGUUCUACAGUCCGACGAUCAAAAAGAGAGAGAGAGAGAGGUGUGAGGGACAAAAUGCAAACCUAUUUCCCUUGCCUCAUAGGCUUCUGGGAUGUCAUCACCUCCAGUUUGUUGGUUUUGUUUCCAACUGUUAAUAAAGCCAACAGAGGAUUGAGCAUCA
B12: chr20:49372985:49374992:-|CDS|ENSG00000158445|control|control|control (ssRNA)
RNA: GGGAGUUCUACAGUCCGACGAUCCAUCUACACCACAGCAAGUGCUAAGACACCCCCCCGGUCUCCUGAGAAACACACAGCAAUAGCGUUCAACUUUGAGGCGGGUGUCCACCAGUACAUUGACGCAGACACAGAUGAUGAGGGCAACAGAGGAUUGAGCAUCA
B13: chr2:226864888:226864989:+|CDS|ENSG00000144468|unk|FALSE|unique (ssRNA)
RNA: GGGAGUUCUACAGUCCGACGAUCUGCUGAUGAUUGGCAUUUGUAUUUCAAUAUGGCAUCCAUGCUCUGGAAAGGAAUAAAUCUAGAAAGAAGACUGGGAAGUAGAUGGUUUGCCUAUGUUAUCACCGCAUUUUCUGUACUUACCAACAGAGGAUUGAGCAUCA
B14: chr8:122973292:122973393:+|3pUTR|ENSG00000178764|msi1|FALSE|unique (ssRNA)
RNA: GGGAGUUCUACAGUCCGACGAUCAGAGAUGGUCUCUCCCCAGCCAUGGGCCACCCUUGCCAGUGACUCCAAGUGGAACUACUUAGCUCGCGUGUGCCUGGAGGGUGCGGGAAGUCCAGCGACUCUCAGACGCACCUCCCAGAGCAACAGAGGAUUGAGCAUCA
B15: chr10:121957106:121957207:-|3pUTR|ENSG00000107672|msi1|total|mutant (ssRNA)
RNA: GGGAGUUCUACAGUCCGACGAUCUGUAUCGUACAUAUUGUAUGAUUCAACAUUUUUAAAGGCAGAUUGUUUUCCGUAAAAUGCCGCUUUUGACCGUUAAUAAAUUUGUCAUGGUUGUCUUUGAUUAAAGGAAACUCACCGCCACAACAGAGGAUUGAGCAUCA
B16: chr10:87746157:87746259:+|3pUTR|ENSG00000198682|unk|total|mutant (ssRNA)
RNA: GGGAGUUCUACAGUCCGACGAUCAACUGAAGACCAAAUCUCCGCAGGUAAAAGCAAUAUUCUUAUACAUUUCAUAAUAAAAUCCGCUCUAUGUAUUUUCUACUGCACCUGAGCAGGCAGGUCCCAGAUUUCUUAAGGCUUUGUCAACAGAGGAUUGAGCAUCA
B17: chr8:103427116:103427218:+|CDS|ENSG00000164934|unk|FALSE|bound_elsewhere (ssRNA)
RNA: GGGAGUUCUACAGUCCGACGAUCGUAUACUGGGAUUGAUCAUCACUGGAAAGAAGCUGUUUUUGCCACAUGUGGACAGCAAGUAGACAUUUGGGAUGAACAAAGAACUAAUCCUAUAUGUUCAAUGACCUGGGGAUUUGACAGCAACAGAGGAUUGAGCAUCA
B18: chr17:82057505:82058235:-|three_prime_utr|ENSG00000169718|control|control|control (ssRNA)
RNA: GGGAGUUCUACAGUCCGACGAUCUUGGGGCCAGUGGGGGCUUCUGAACAACAGGAUACAUCUAAAUGAAGGCAGCAUCUGGGUAGACAAAAGUGGGGGCUUAGGUCCCCUCCCCACCUCCCCUAGGCGCCUCCAUAGGCAAGUCAACAGAGGAUUGAGCAUCA
B19: chr2:216674409:216674600:-|3pUTR|ENSG00000115461|msi1|total|mutant (ssRNA)
RNA: GGGAGUUCUACAGUCCGACGAUCUCAUGGCAUGACACAGCGGAGACCGCCUCCAACAACGAAUUUGGGGCUACGAAGAGGAACCGCGAAAAAGCAAAUCUGUUUCAACUGAUGGGAACCCUACCGCUACCGAACUUGGGGGCUCAACAGAGGAUUGAGCAUCA
B20: ENSG00000088387:stop:overlap|stop_codon|ENSG00000088387|stop_codon|NA|stop_codon (ssRNA)
RNA: GGGAGUUCUACAGUCCGACGAUCACGCUCCAUGCUCUUGUGGGCUUCUCUCCACCAUCACUCUGAAAGUGUCUUGGAGCCAAUAGUUGGUGAACGUGUCACACUUGUGUGGUAGGACCUUGAAGUCUAAGUUGCUUUCCUGAGCAACAGAGGAUUGAGCAUCA
B21: chr1:228494639:228494729:+|3pUTR|ENSG00000168159|msi1_unk|total|mutant (ssRNA)
RNA: GGGAGUUCUACAGUCCGACGAUCGCCAUCGUGUCUCAUCUUGCUGUUAUCUCCCGCUCUUUCCCUCCUCCCAUUUCCUUCCGCCGUUGAAUUUUGCAAAGCUUGCCGCAGCCGCUCAGUUGCCUGCAGCAUCCUUGUGUGCCGCAACAGAGGAUUGAGCAUCA
B22: chr10:99879964:99880065:-|CDS|ENSG00000107554|unk|FALSE|bound_elsewhere (ssRNA)
RNA: GGGAGUUCUACAGUCCGACGAUCCAGAUGCCCUUCAGACCCAGACUCCACCUCCCAGCCAAGGUCAGGGGACUCUGCAGAUGUAGCUAGAGAUGUAAAGCAACCCACUGCCACGCCGAGGAGCUACCGGAACUUCAGGCAUCCCAACAGAGGAUUGAGCAUCA

molecular target: T1, UNK ZnF1-6 (called full-length); test: nsRBNS (natural sequence RNA bind-n-seq); RBNS binding buffer (assumed for nsRBNS): 25 mM Tris pH 7.5, 150 mM KCl, 3 mM MgCl2, 0.01% Triton X-100, 500 ug/ml BSA, 20 U/ml SUPERase-In, 4 C; UNK is unkempt and MSI1 is Musashi-1; names of the RNAs are library labels; protein concentration not given here; high values mean tight binding

Row | Binder | binding signal [enrichment R]
1 | B1 | 0.772
2 | B2 | 0.771
3 | B3 | 0.363
4 | B4 | 0.889
5 | B5 | 0.36
6 | B6 | 0.569
7 | B7 | 0.262
8 | B8 | 0.533
9 | B9 | 0.614
10 | B10 | 0.501
11 | B11 | 0.758
12 | B12 | 0.782
13 | B13 | 0.279
14 | B14 | 0.759
15 | B15 | 0.294
16 | B16 | 0.876
17 | B17 | 0.575
18 | B18 | 0.741
19 | B19 | 0.654
20 | B20 | 0.367
21 | B21 | 0.921
22 | B22 | 1.07
